Source: PubChem BioAssay AID504832 (National Center for Advancing Translational Sciences (NCATS), 2011)
Hit rate of the full screen: of about 310,000 compounds, about 18,000 (5.8%) were called active. Inconclusive means that the source gave no clear call. Such entries were picked first, then a sample of the others. Calls follow the shape of the dose curve; as a rule, active = well fitted inhibition curve with a large enough effect; inconclusive = small, poorly fitted or top-dose-only effect, or another doubt; inactive = no such curve, though single readings can be large or run the other way. No potency is given beside an inconclusive call; the fits are too rough.

Test: Primary qHTS for delayed death inhibitors of the malarial parasite plastid, 48 hour incubation
Settings: P. falciparum luciferase growth in erythrocytes; series mostly up to 28.7 µM; activity change, negative = inhibition: at the top concentration
Summary of the method: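 Firefly luciferase activity from engineered P. falciparum reports growth; inhibitors lower the luminescent signal. Cultures contained 2% hematocrit erythrocytes at 0.1% final parasitemia.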
% is scaled to controls: 0 for no effect and ±100 for the full control effect; potency is read from the fitted curve at half-maximal effect; tags tell the direction and shape of the fitted curve.

Structure (SMILES)	Potency	activity change, negative = inhibition
CCn1cc(C(=O)NCC(OC)OC)c(=O)c2cc(S(=O)(=O)N(C)C3CCCCC3)ccc21	inconclusive [inhibitor, partial curve]	
Cn1c(-c2ccccc2)c[n+]2c1-c1ccccc1C2	active: 0.586 µM	
CCN1C(=O)[C@@H]2[C@@H](c3ccc(SC4CCCCC4)cc3)N3CCCC[C@@]3(C(=O)OC)[C@@H]2C1=O	inconclusive [inhibitor, partial curve, poor fit]	
Cc1ccc(NC(=O)CN2CCN(S(=O)(=O)c3ccc(F)cc3)CC2)cc1C	inconclusive [inhibitor, single point]	
Cc1ccc(-c2csc3nnc(SCC(=O)NCc4ccc5c(c4)OCO5)n23)cc1	inconclusive [inhibitor, partial curve, poor fit]	
COc1ccccc1N(CC(=O)NC1CCCC1)S(=O)(=O)c1cccc(C(F)(F)F)c1	active: 13.1 µM	
CCOc1ccc(Oc2ccccc2NC(=O)C2=COCCO2)cc1	inconclusive [inhibitor, partial curve, poor fit]	
CC1(C)Cc2nc3sc4c(NCCO)ncnc4c3cc2CS1	inconclusive [inhibitor, single point]	
CCOc1ccc(NC(=O)c2cc(Cl)nc3ccccc23)cc1		inactive: 24.6%
O=C(Cn1c(=S)[nH]c2ccccc2c1=O)N1CCN(c2ccc(F)cc2)CC1		inactive: -10.1%
CCn1cc(C(=O)NCCc2ccc(Cl)cc2)c(=O)c2cc(S(=O)(=O)N(C)C)ccc21	inconclusive [inhibitor, full curve, poor fit]	
O=c1c2cc(Cl)cc(Cl)c2nc(CN2CCOCC2)n1-c1ccccc1F	inconclusive [inhibitor, single point]	
CC(=O)N1CCc2c(sc3c2c(=O)n(-c2ccccc2)c(=O)n3Cc2ccccc2Cl)C1	inconclusive [inhibitor, partial curve, poor fit]	
O=S(=O)(c1ccc(-c2ccon2)s1)N1CCN(CCN2CCOCC2)CC1	inconclusive [inhibitor, partial curve]	
COc1ccccc1N1CCN(C(CNS(=O)(=O)c2cc(F)ccc2F)c2cccnc2)CC1 (configuration not stated)	inconclusive [inhibitor, single point]	
CCN(Cc1ccccc1)C(=O)c1cccc(S(=O)(=O)N2CCN(c3ccccc3)CC2)c1	inconclusive [inhibitor, partial curve, poor fit]	
CN(CC(=O)Nc1ccccc1C(F)(F)F)C(=O)c1ccc(-c2ccc(Cl)cc2)o1	active: 2.94 µM	
CCCOC(c1ccccc1)(c1ccccc1)C(Oc1nc(C)cc(C)n1)C(=O)O (configuration not stated)	inconclusive [inhibitor, full curve, poor fit]	
O=C(O)CSc1nc2sc3c(c2c(=O)n1Cc1ccccc1)CCCCC3		inactive: 55.2%
COc1ccc(S(=O)(=O)N(C)c2ccc(C(=O)NC3CCCC3)cc2)cc1	inconclusive [inhibitor, partial curve, poor fit]	
CC(=O)Oc1ccccc1C(=O)N(C1CCCCC1)C1CCCCC1	inconclusive [inhibitor, single point]	

Structure (SMILES)	Potency	activity change, negative = inhibition
COc1cc(OC)c(NS(=O)(=O)c2cc3[nH]c(=O)c(=O)[nH]c3cc2C)cc1Cl	inconclusive [inhibitor, single point]	
Cc1ccccc1S(=O)(=O)Cc1ccc(C(=O)NCCN(Cc2ccccc2)C(C)C)o1	active: 5.22 µM	
CC(C)=CCN1CCN(Cc2cn(C(C)C)c3ccccc23)CC1CCO (configuration not stated)	inconclusive [inhibitor, single point]	
Cc1cc(OCCN2CCN(S(=O)(=O)c3ccccc3F)CC2)ccc1C(C)C	inconclusive [inhibitor, single point]	
Cc1ccc(C(=O)NCCCNC(=O)COc2ccc(Cl)c(C)c2)cn1	inconclusive [inhibitor, partial curve, poor fit]	
Cn1c(=O)[nH]c2nnc(-c3ccc(Cl)c(Cl)c3)nc2c1=O	inconclusive [inhibitor, full curve]	
COc1ccc(N2CCN(C(=O)CNC(=O)Cn3cnc4sc(C)c(C)c4c3=O)CC2)cc1		inactive: 7.97%
Cc1ccc(S(=O)(=O)N(C)Cc2ccc(C(=O)N/N=C3\CCCC(=O)C3)cc2)cc1	inconclusive [inhibitor, partial curve, poor fit]	
COc1ccccc1NC(=O)CS(=O)(=O)c1cccc2nsnc12		inactive: -23.2%
c1ccc2c(C3CCO3)cccc2c1 (configuration not stated)		inactive: 42.3%
CCOC(=O)C1(CC2CCCCO2)CCN(C(=O)NCc2ccccc2)CC1 (configuration not stated)		inactive: 1.86%
Cc1cc(-c2n[nH]c(=S)n2/N=C/C(Cl)=C/c2ccccc2)n[nH]1		inactive: -16.3%
CN(C)c1ccc(C=C(C#N)C#N)cc1		inactive: 0.883%
COc1ccc(CNC(=O)C(C)N2C(=O)NC3(CCCCCCC3)C2=O)cc1 (configuration not stated)	inconclusive [inhibitor, single point]	
N#CCCN1CCN(S(=O)(=O)c2ccc(S(=O)(=O)N3CCCCCC3)cc2)CC1		inactive: 2.65%
c1ccc2sc(NC3=NCCN3)nc2c1		inactive: 75.8%
CCN(CC(=O)Nc1ccccc1C(F)(F)F)C(=O)c1ccc2c(=O)n3c(nc2c1)CCC3	inconclusive [inhibitor, single point]	
COc1ccc(NC(=O)c2cc(-c3ccc(OC)c(OC)c3)nc3ccccc23)c(OC)c1	inconclusive [inhibitor, single point]	
Cc1cccc(C(C)C)c1NC(=O)c1ccc(COc2ccc3c(C)cc(=O)oc3c2)cc1	inconclusive [inhibitor, partial curve, poor fit]	
Nc1nc(NCc2ccccc2)nc(-c2ccccc2)n1	inconclusive [inhibitor, partial curve, poor fit]	
COc1ccc(-c2ccc(-c3noc(-c4ccc(OC)c(OC)c4)n3)c(OC)n2)cc1		inactive: 2.56%
